24 compounds from ChEMBL document CHEMBL4888484, “Replenishing the malaria drug discovery pipeline: Screening and hit evaluation of the MMV Hit Generation Library 1 (HGL1) against asexual blood stage Plasmodium falciparum ,using a nano luciferase reporter read-out” (2022) can be followed below.

Hit rate of the full screen: of about 150,000 compounds, about 540 (0.36%) showed an effect of 50% or more. The list shows a part of the results.

The subject of the assay is Plasmodium falciparum. The assay can be described thus: Primary screen in NF54 nanoGlo assay, in single point, at 2uM, 72h; a lower Z score goes with more inhibition. It counts as functional, Erythrocyte. Conditions: timepoint 72 hour.
`CCC1CN(C(C)=O)CCC1NCc1cc2cc(F)ccc2o1` (stereo not drawn): the “% Inhibition” value is -8% and the Z score is listed as 0.97.
As to `NC(=O)c1ccccc1OCC#CCNC(=O)Cc1ccc(F)cc1`, the “% Inhibition” value stood at 8% and the Z score is reported as -1.02.
For `CS(=O)(=O)c1ccc(Cl)c(C(=O)N2CCC(c3nc4ccccc4o3)CC2)c1`, in that order: 14% and -1.62.
`Cc1ccc(S(=O)(=O)N2C[C@@H](C(=O)Nc3ccccc3C(C)C)Oc3ccc(C)cc32)cc1`: the “% Inhibition” value is listed as -6% and the Z score turned out to be 0.82.
As for `CCCCCC(C)NC(=O)N1CCCCC1C` (stereo not drawn), the “% Inhibition” value is reported as 2% and the Z score was -0.28.
In the case of `COC1(C)CN(c2nc(C)c3cn[nH]c3n2)C1`, the “% Inhibition” value was -10% and the Z score worked out at 1.55.
The like results for `Cc1ccccc1NC(=O)[C@@H]1CCCN1C(=O)OCc1ccccc1` were, in that order, 29% and -3.3.
With `CCN1CCC(NCc2ccn(C)n2)C1c1ccc(Cl)c(F)c1` (stereo not drawn), the “% Inhibition” value was -6% and the Z score was 0.71.
In the case of `Cc1c(-c2ccccc2)noc1NC(=O)CN1CCCCCC1`, the “% Inhibition” value was -2% and the Z score was 0.4.
As to `CC(C)c1noc(Cc2ccc(NC(=O)C3CC=CC3)cc2)n1`, the “% Inhibition” value is -4% and the Z score was 0.48.
With `CC(=O)Nc1ccc(C)cc1S(=O)(=O)NCc1nn(Cc2ccccc2)c2ccccc12`, the “% Inhibition” value is reported as -3% and the Z score is on record as 0.3.
Consider `CC(C)Cn1cc(C(=O)OC2CCN(c3ccncn3)CC2)cn1`, for which the “% Inhibition” value was found to be 28% and the Z score is -3.11.
Take `Cc1ccc(N2CCC(NC(=O)CC(C)c3c(C)noc3C)C2)cc1` (stereo not drawn): the “% Inhibition” value worked out at 16% and the Z score is -2.05.
Consider `CCOC(=O)C(C)NC(C)c1cc(F)c(F)c(F)c1` (stereo not drawn), for which the “% Inhibition” value was -2% and the Z score was 0.24.
Regarding `CN(C)CCCNC(=O)C1CCN(c2nc3ccc(-c4cccnc4)nc3s2)CC1`, the “% Inhibition” value is 10% and the Z score is on record as -1.09.
Consider `Cn1nc(-c2cccnc2)cc1CNC(=O)C1CCCC1`, for which the “% Inhibition” value worked out at 12% and the Z score was -1.47.
Regarding `COc1cc2c(cc1OC)[C@H](C1CC1)N(Cc1ccnn1C)CC2`, the “% Inhibition” value is recorded as -2% and the Z score was 0.2.
For the compound `O=C(NCCCN1CCCC1=O)NCC1(c2ccccc2)CC1`, the “% Inhibition” value is -7% and the Z score came to 1.41.
The like results for `NC(=O)CCCNC(=O)C1(Cc2cccc(Cl)c2)CCCC1` were, in that order, -4% and 0.52.
In the case of `CCNC(=O)N1CCN(C(=O)c2ccnc3c2nnn3C)CC1`, the “% Inhibition” value was -1% and the Z score is 0.11.
As for `CCCN(CC(=O)N1CCn2cccc2[C@H]1c1cccc(Oc2ccccc2)c1)C(=O)Nc1cccc(C)c1`, the “% Inhibition” value is -18% and the Z score is recorded as 1.54.
For `O=C(Cn1cncn1)Nc1cc(C2CCCCCC2)[nH]n1`, in that order: -1% and 0.15.
The like results for `COc1ccc2cc3c(nc2c1)N(C(=O)c1cccc(C)c1)CC3` were, in that order, -8% and 0.87.
As to `COc1ccc(CCNC(=O)Cn2c(=O)n(CCc3ccc(Cl)cc3)c(=O)c3ccccc32)cc1OC`, the “% Inhibition” value is given as -2% and the Z score was 0.19.
